Assay results taken from publication PMC4336329 (PLoS ONE, 2015).
In all, about 310,000 compounds went through this assay and about 14,000 (4.5%) showed an effect of 50% or more. The effect is printed as a negative number. The list shows a part of the results.

Biological target: human ether-à-go-go-related gene (hERG) potassium channel (human, UniProt Q12809)
Assay: primary screen, population patch clamp on CHO cells stably expressing hERG
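Also: peak tail current of the secondary pulse compared with the same well before compound.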

human ether-à-go-go-related gene (hERG) potassium channel, sequence (Q12809 whole entry, looked up): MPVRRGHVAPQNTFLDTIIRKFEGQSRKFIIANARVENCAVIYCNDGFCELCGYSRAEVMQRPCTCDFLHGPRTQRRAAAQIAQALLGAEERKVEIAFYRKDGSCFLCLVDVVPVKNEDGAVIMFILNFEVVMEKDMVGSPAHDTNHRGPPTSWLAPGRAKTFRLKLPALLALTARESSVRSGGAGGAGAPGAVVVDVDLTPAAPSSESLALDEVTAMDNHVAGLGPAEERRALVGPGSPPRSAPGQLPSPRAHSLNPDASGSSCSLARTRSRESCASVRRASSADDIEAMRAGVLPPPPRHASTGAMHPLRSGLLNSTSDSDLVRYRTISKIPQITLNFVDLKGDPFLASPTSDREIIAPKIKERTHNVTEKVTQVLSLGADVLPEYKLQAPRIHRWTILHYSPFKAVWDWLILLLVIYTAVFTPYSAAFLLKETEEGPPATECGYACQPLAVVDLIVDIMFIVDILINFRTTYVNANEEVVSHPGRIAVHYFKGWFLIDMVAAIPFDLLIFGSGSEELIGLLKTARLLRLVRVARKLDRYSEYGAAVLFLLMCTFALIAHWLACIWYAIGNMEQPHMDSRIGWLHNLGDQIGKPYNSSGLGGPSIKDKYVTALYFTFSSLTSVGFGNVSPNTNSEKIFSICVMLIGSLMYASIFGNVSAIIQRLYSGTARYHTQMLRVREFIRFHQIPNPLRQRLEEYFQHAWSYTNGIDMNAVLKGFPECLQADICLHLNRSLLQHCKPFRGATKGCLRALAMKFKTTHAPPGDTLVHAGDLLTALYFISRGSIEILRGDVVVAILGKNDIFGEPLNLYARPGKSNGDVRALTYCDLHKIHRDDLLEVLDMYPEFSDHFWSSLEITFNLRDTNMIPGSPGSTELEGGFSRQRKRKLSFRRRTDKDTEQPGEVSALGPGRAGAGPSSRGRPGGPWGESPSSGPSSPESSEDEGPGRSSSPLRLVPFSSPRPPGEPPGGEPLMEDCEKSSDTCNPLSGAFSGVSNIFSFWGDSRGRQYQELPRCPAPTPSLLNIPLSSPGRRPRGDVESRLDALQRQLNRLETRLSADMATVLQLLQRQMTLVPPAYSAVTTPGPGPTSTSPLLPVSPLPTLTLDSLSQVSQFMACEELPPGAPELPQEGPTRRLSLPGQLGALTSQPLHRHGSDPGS

Structure (SMILES) | hERG current change (%, negative = inhibition) at 10uM
CCOc1ccc(CCNC(=O)COC(=O)c2cc(OC)cc(OC)c2)cc1OCC | 6.44%
Cc1cc(C)n2nc(-c3cccnc3)nc2n1 | 9.07%
CCOC(=O)C(C#N)=C1CCN(Cc2ccccc2)CC1 | 22%
CCN(CC)S(=O)(=O)c1ccc(Cl)c(NC(=O)c2cc(Cl)cc(Cl)c2)c1 | 10.2%
CCc1nnc(NC(=O)CSc2nnc(CNc3ccc(OC)cc3)n2CC)s1 | 13.1%
COc1ccc(Cc2nnc(NC(=O)Cc3cccs3)s2)cc1OC | 16.2%
Cc1ccc(CNC(=O)CCS(=O)(=O)c2cc(Br)cc3c2N(C(=O)C2CC2)CC3)o1 | -16.7%
O=C(COc1ccc(/C=N/NC(=O)C(=O)N2CCCCC2)cc1)Nc1ccccc1Cl | 15.9%
O=C1/C(=C/c2ccc([N+](=O)[O-])cc2)CCC1C1CCCC1 (centres unmarked) | 12.5%
Cc1cc(Sc2nnc(N)s2)c2ccccc2n1 | 10.9%
O=C(NC1CCCCCC1)C1CCCN(c2ncccn2)C1 (centres unmarked) | 3.96%
Cc1cc(C(=O)Nc2ccc3c(c2)OCO3)cs1 | -6.84%
CCOC(=O)C1=C(c2ccccc2)NC(=O)NC1c1cc(OC)c(OC)cc1OC (centres unmarked) | 7.29%
CC(C)c1ccc(C2N3CCCN23)cc1 (centres unmarked) | 3.32%
Cn1c(SCC(N)=O)nnc1C1CCN(C(=O)NCc2ccccc2)CC1 | 11%
Cc1ccc(C)c(OCC(=O)NCCN(C)C)c1.Cl | 15%
CCOC(=O)N1CCN(C(=O)Nc2ccc(Cl)cc2)CC1 | -11.4%
CC(=O)c1sc(NC(=O)COc2ccc(C(C)C)c(C)c2)nc1C | 10.9%
O=C(O)CC1S/C(=N\N=C2\C(=O)Nc3ccccc32)N(c2ccc(O)cc2)C1=O (centres unmarked) | -53.7%
Cc1ccccc1N(CC(=O)NCc1ccncc1)S(C)(=O)=O | 34.9%
CN1C(=O)N(CC(=O)N2CCN(S(=O)(=O)/C=C/c3ccccc3)CC2)C(=O)C12CCCCC2 | -9.37%
Cc1ccc(SCC(=O)N2CC(C)OC(C)C2)cc1 (centres unmarked) | 6.92%

Structure (SMILES) | hERG current change (%, negative = inhibition) at 10uM
CC[C@@]12C(=O)N(c3ccc(C)cc3)C(=O)N1[C@H](c1ccc(Br)cc1)[C@@H]1C(=O)N(C(C)(C)C)C(=O)[C@@H]12 | -8.14%
COC(=O)c1c(NC(=O)Cc2cccs2)sc2c1CCCC2 | 2.72%
OCCSc1nnc(Nc2ccccc2)s1 | 4.74%
COc1ccccc1/C=C(/C(=O)OCC(=O)N(C)Cc1ccccc1)c1ccccc1 | 10.7%
Cc1ccc(C(=O)NC(=S)N2CCN(c3cc(C)ccc3C)CC2)cc1 | 8.35%
Cn1nc(-c2ccc(OCC(=O)N3CCN(Cc4ccccc4)CC3)cc2)c2ccccc2c1=O | -44.4%
CCOc1ccc(NC(=O)CCC(=O)NNC(=O)c2ccc(Br)o2)cc1 | 4.62%
COc1ccc(N=C2NC(=O)/C(=C/c3ccc(O)c(OC)c3)S2)cc1 | 7.28%
OCc1cn(-c2ccccc2)nn1 | 19.2%
CO/N=C/C(C#N)=C/c1cc(C(=O)c2ccccc2)cn1C | 18.4%
CC/C(=N\Nc1ccccc1)c1c(O)[nH]c(=O)[nH]c1=O | 24.2%
Cc1ccc2cc3cc(C(=O)NCc4ccco4)oc3nc2c1 | -1.21%
COc1ccc(Cl)cc1C(=O)NCC(=O)OCc1ccccc1 | -36.4%
CCOc1ccc(-c2cc(C)[n+](CCO)c(-c3ccc(OCC)cc3)c2)cc1.[O-][Cl+3]([O-])([O-])[O-] | -62.6%
O=C(Nc1c(-c2ccccc2)nc2ccccn12)c1ccccc1F | -3.02%
NC(=O)CSC1=Nc2ccccc2C2=NC(CC(=O)NCc3cccs3)C(=O)N12 (centres unmarked) | 11.2%
O=C1CCCCN1CC(=O)N1CCCC(N2CCN(c3ccccc3F)CC2)C1 (centres unmarked) | 3.7%
O=C(Nc1ccc(F)c(Cl)c1)NC1CC1 | 13.7%
Cc1ccc(-c2nn(-c3ccccc3)cc2C(N)=O)o1 | -13.1%
COc1ccc(CCN(C)C(=O)Cn2c(=O)oc3ccccc32)cc1OC | -13.3%
COc1ccc(OC)c2[nH]c(=O)c(CCNC(C)=O)cc12 | 3.58%
CCCCc1ccc(NC(=O)COc2ccc(C(=O)Nc3ccccc3OC)cc2)cc1 | 12.6%
